Measured values from PubChem BioAssay AID1346428 (National Center for Advancing Translational Sciences (NCATS), 2018).
Values joined by “and” are separate entries in the source; they are usually repeats but may differ in a detail not shown here. Equal entries are not always repeated. Out of some 48,000 compounds screened, about 1,200 (2.5%) were called active. Not shown: some 2% with an inconclusive outcome.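 The calls were made as follows: active = activation of at least 60% and not above a set upper limit (about 1 call in 100 departs from these limits); inconclusive = activation of 40% to 60%, or above that upper limit; inactive = activation under 40%.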 This is one part of the list.

Molecular target: Probable G-protein coupled receptor 32 (Homo sapiens) (UniProt O75388)
UniProt O75388, sequence (O75388 whole entry, looked up): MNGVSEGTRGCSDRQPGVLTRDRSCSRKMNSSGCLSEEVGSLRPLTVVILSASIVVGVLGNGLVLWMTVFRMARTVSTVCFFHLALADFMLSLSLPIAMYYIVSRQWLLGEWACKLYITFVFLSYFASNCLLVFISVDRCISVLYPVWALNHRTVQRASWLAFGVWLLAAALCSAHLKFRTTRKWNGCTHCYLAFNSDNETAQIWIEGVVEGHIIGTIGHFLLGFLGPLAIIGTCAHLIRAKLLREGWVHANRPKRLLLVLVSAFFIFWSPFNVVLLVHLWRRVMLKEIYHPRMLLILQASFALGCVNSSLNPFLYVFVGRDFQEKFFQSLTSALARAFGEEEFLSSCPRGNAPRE
Assay: qHTS for Agonists of Human Resolvin D1 Receptor DRV1; also: 0% is about no effect
Details: CHO-K1 GPR32 beta-arrestin PathHunter luminescence, 90 min; at 76.9 µM; stronger effect = higher value; zero percent set by DMSO-only wells
Summary of the method: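 Engineered CHO-K1 line co-expressing GPR32-ProLink and EA-beta-arrestin. Compound treatment lasted 90 min at 37 °C. Luminescence was recorded after 1 h with substrate at ambient temperature, relative to DMSO basal wells.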

activation, inactive:
Cc1c(C(=O)N(C)C)sc2c1c(=O)n(-c1ccc(F)cc1)c(=O)n2Cc1cc(=O)n2ccccc2n1 -1.91%
CC(=O)N1CCCc2ccc(NS(=O)(=O)c3ccc(C)c(C)c3)cc21 -13.7%
CCC(=O)N1CCc2cc(Br)cc(S(=O)(=O)N3CCCC(C(=O)NCc4cccc(OC)c4)C3)c21 (stereo not drawn) -9.64%
Cc1nc2c(-c3ccccc3)c(C)nn2c(C)c1CCC(=O)N1CCN(c2ccccc2)CC1 -1.78%
COc1ccc(C(=O)COC(=O)c2cc(-c3ccccc3)nc3c(C)cccc23)cc1 -7.48%
O=C1CCc2cc(S(=O)(=O)NCc3ccc(F)cc3)cc3c2N1CC3 26.2%
Cc1ccc(Cc2nc3ccccc3nc2SCC(=O)N2CCN(c3ccccc3F)CC2)cc1 -11.7%
CCCS(=O)(=O)c1ncc(Cl)c(C(=O)Nc2c(C(=O)c3ccccc3)oc3ccccc23)n1 8.57%
CCCCCn1c(NCc2ccccc2OC)nc2ccccc21 10.1%
CCc1cc2c(cc3c(=O)n(CC(=O)N4CCC(C)CC4)nc(CC)n32)s1 -2.53%
NCCCNCCSP(=O)(O)O -5.07% and 1.57%
Cn1nc(C(=O)N2CCN(c3cccc(Cl)c3)CC2)c2c1-c1ccccc1S(=O)(=O)C2 -14.9%
O=C(Nc1nnc(S(=O)(=O)N2CCOCC2)s1)c1cccc(F)c1 49.3%
CCS(=O)(=O)N1CCc2cc(C(=O)Nc3ccc(C)c(Cl)c3)ccc21 15.7%
CCCCOc1ccc(C(=O)NCC2(N3CCN(C)CC3)CCCCC2)cc1 -9.84%
CCc1ccc(-n2c(=O)c3ccc(C(=O)NCCc4ccccc4)cc3n(CC(N)=O)c2=O)cc1 -5.07%
Cc1ccc2c(c1)C(c1ccccc1)N(C(=O)c1ccc(OC(C)C)cc1)CC(=O)N2 (stereo not drawn) -15.1%
Cc1c2cnn(-c3ccccc3)c(=O)c2c(C)n1CC(=O)NCc1ccccc1Br -13.8%
Cc1cccc(CCNC(=O)Cn2ncc3c(=O)oc4ccccc4c32)c1 30.7%
CC(=O)c1cccc(NC(=O)C(Cc2ccccc2)NS(=O)(=O)c2ccc(Br)s2)c1 (stereo not drawn) 33.5%
O=C(Nc1ccc(Cl)cc1)N1CCC(CN2CCCC2)CC1 -18.9%
CCOC(=O)C1CCN(c2nc(-c3ccc(Br)cc3)nc3ccccc23)CC1 -14.9%
COc1ccc(OC)c(NC(=O)c2cn3c4c(ccc(Cl)c4c2=O)OC(C)C3)c1 (stereo not drawn) 17%
COc1ccc(Cn2cc(C(=O)c3ccc(OC)cc3)c(=O)c3cc4c(cc32)OCCO4)cc1 17.4%
CCOc1ccc(NC(=O)Cc2coc3ccc(C)cc23)cc1 10.4%
COc1ccc(-c2cc(C(F)F)n3ncc(C(=O)Nc4cc(OC)ccc4OC)c3n2)cc1 -3.65%
CCc1cnc2c(c1SCC(=O)Nc1ccc(Cl)cc1)c(=O)n(C)c(=O)n2C -9.74%
CC(COc1ccccc1)NC(C)C(O)c1ccc(O)cc1 (stereo not drawn) 8.04%
